Test results taken from the RNAGym collection of RNA variant scans (doi:10.7554/elife.90254).
The source gives no read counts; variants with many changes may rest on few reads.

B1: LINE1-mini (parent)
chain: GGCAGAGCUCAACACAGCGUGGCAAAGUGGCUGUGGCUAGACUGCC

Variants of: B1
Assay: self-cleavage, relative activity (ratio to wild type); higher = more cleavage; in vitro, sequencing; the parent is a self-cleaving ribozyme

Variant	self-cleavage
GGCAGAGCUCAACACGGCCUGGCAAAGUGGCUGGGGCGAGACUGCC [A16G G19C U34G U38G]	0.02
GGCAGAGCUCAACACGGCAUCGCAAAGUGGCUGUGUCUAGACUGCC [A16G G19A G21C G36U]	0.03
GGCAGAGCUCAACACGACGUGGCAAAGUGGCUGUGGCUAGACUGUC [A16G G17A C45U]	0.01
GGCAGAGCUCAACACGACGUGGCAAAGUGGCUGGGGCUAGACUGCC [A16G G17A U34G]	0.04
GGCAGAGCUCAACACGGCGUGGUAAAGUGGCUGUGGGUAGACUGCC [A16G C23U C37G]	0
GGCAGAGCUCAACACGGCGUAGCAAAGCGGCUGUGGUUAGACUGCC [A16G G21A U28C C37U]	0.04
GGCAGAGCUCAACACGGCGUUGCAAAGUGGCGGUGGCUGGAAUGCC [A16G G21U U32G A39G C42A]	0.03
GGCAGAGCUCAACACGGCUUGGCGAAGUGACUGUGGCUAGAGUGCC [A16G G19U A24G G30A C42G]	0.02
GGCAGAGCUCAACACGGCAUGGCAAAGUGGCUGUGGCUAGACUGAC [A16G G19A C45A]	0.8
GGCAGAGCUCAACACGGCUUGGCAAAGUGGCUGUGGCUAGACUCCC [A16G G19U G44C]	0.46
GGCAGAGCUCAACACGGCAUGGCAUAGUGGCUGUGGCUAGACUGCC [A16G G19A A25U]	0.26
GGCAGAGCUCAACACGGCGUGGUAAAGUGGCUCUGGCUAGACUGCC [A16G C23U G33C]	0.01
GGCAGAGCUCAACACGGCGUGGUUAAGUAGCUGUGGCUAGACUGCC [A16G C23U A24U G29A]	2.17
GGCAGAGCUCAACACGGCGUGGAAAAGUGGCUCUGGCUAGACUGCC [A16G C23A G33C]	0
GGCAGAGCUCAACACGGCGUGGCAAAGUGGGUGUGGCUACACUGCC [A16G C31G G40C]	0
GGCAGAGCUCAACACGGCAUGGCAAAGUGGCUGUAGCUAGACUGCC [A16G G19A G35A]	0.01
GGCAGAGCUCAACACGACGGGGCAAAGUGGCUGUGGCUAGACUGCC [A16G G17A U20G]	0.03
GGCAGAGCUCAACACGGCGUGGAAAAGUGUCUGUGGCUACACUGCC [A16G C23A G30U G40C]	0.02
GGCAGAGCUCAACACGGCGUCGCAAAUUGGCUGUGGCUAGACUUCC [A16G G21C G27U G44U]	0.12

Variant	self-cleavage
GGCAGAGCUCAACACGGCGUGUCAAAUUGGCUGGGGCUAGGCUGCC [A16G G22U G27U U34G A41G]	0.01
GGCAGAGCUCAACACGGCGUGGCAAAGUGGCUGUGGUUAGAAUGCC [A16G C37U C42A]	0.01
GGCAGAGCUCAACACGGCGUGACAAAGUGGUUGUGGCUAGACUGCC [A16G G22A C31U]	0.05
GGCAGAGCUCAACACGGCGUCGCAAAGUGGCAGUGUCUAGACUGUC [A16G G21C U32A G36U C45U]	0
GGCAGAGCUCAACACGACGUGGCAAAGUGGCUGUGGCUAGACUACC [A16G G17A G44A]	0.01
GGCAGAGCUCAACACGGCGUGGUAAAGUGGCUGUGGCUAGACCGCC [A16G C23U U43C]	0.11
GGCAGAGCUCAACACGGCGUGUCAAAGUGGCUGUGGCUAGAGUGCC [A16G G22U C42G]	0.02
GGCAGAGCUCAACACGUCGUGGUAAAGUUGCUGUGGCUAGACUGCA [A16G G17U C23U G29U C46A]	0.1
GGCAGAGCUCAACACGGCGUAGCAAAAUGGCUGUGGCUAGACUGCC [A16G G21A G27A]	1.25
GGCAGAGCUCAACACGGCGUGGCAAAGUGGGUUUGGUUAGACUCCC [A16G C31G G33U C37U G44C]	0.01
GGCAGAGCUCAACACGACGUGGCAAAGUGGCAGUGGCUAGACUGCC [A16G G17A U32A]	0.03
GGCAGAGCUCAACACGGCUUGGCACAGUGGCUGUGGCUAGACUGCC [A16G G19U A25C]	0.19
GGCAGAGCUCAACACGGCGUGGGAAAUUGGCUGUGGCUAGACUGCC [A16G C23G G27U]	0.52
GGCAGAGCUCAACACGGCGUGGGCAAGUGGCUGUGGCUAGACUGCC [A16G C23G A24C]	0.03
GGCAGAGCUCAACACGGCGUGGGAAAGUGGCUGUGGAUAGACUGCC [A16G C23G C37A]	0.05
GGCAGAGCUCAACACGGCCUGGCAAAGUGCCUGUGGCCAGACUGCC [A16G G19C G30C U38C]	0.03
GGCAGAGCUCAACACGACGUGGCAAAGUGGCUGUGGCACGACUGCC [A16G G17A U38A A39C]	0.01
GGCAGAGCUCAACACGGCGUAGCAAAGUGGCUGUGGCUGGACUGCC [A16G G21A A39G]	0.06
GGCAGAGCUCAACACGGCGUGGCAAAGUGGAUGUGGCUAGACUGCU [A16G C31A C46U]	0.06

Variant	self-cleavage
GGCAGAGCUCAACACGACGUGCCAAAGUGGCUGUGGCUGGACUGCC [A16G G17A G22C A39G]	0.01
GGCAGAGCUCAACACGGCGUAGCAAAGUGGCUGUGGCCAGACUGCC [A16G G21A U38C]	0.15
GGCAGAGCUCAACACGGCGUUGCAAAGUGGCUGUCGCUAGACUGCC [A16G G21U G35C]	0.01
GGCAGAGCUCAACACGGCGUGGCAAAGUGGGCGUGGCUAGACUGCC [A16G C31G U32C]	0.05
GGCAGAGCUCAACACGGCGUGGCAAAGUGGGGGUGGCUAGACUGCC [A16G C31G U32G]	0.01
GGCAGAGCUCAACACGGCACGGCAAAGUGGCCGUGGCUUGACAGCC [A16G G19A U20C U32C A39U U43A]	0.3
GGCAGAGCUCAACACGGCGUGGCAAAGUGGCUGUGGCUAGACUGAA [A16G C45A C46A]	0.03
GGCAGAGCUCAACACGGCCUCGAAAAGUGGCUGUGGCUAGACUGCC [A16G G19C G21C C23A]	0.13
GGCAGAGCUCAACACGUCGUGGGAAAGUGGCUAUGGCUAGACUGCC [A16G G17U C23G G33A]	0.01
GGCAGAGCUCAACACGUCAUGGCAAAGUGGCUGUGGCUAUACUGAC [A16G G17U G19A G40U C45A]	0.45
GGCAGAGCUCAACACGGCAUGGCAGAGUGGCUGUGGAUAGACUGCC [A16G G19A A25G C37A]	0.01
GGCAGAGCUCAACACGACGUGGCAAAGUGGCUGUGGCUAGGCUGCC [A16G G17A A41G]	0.02
GGCAGAGCUCAACACGGCAUGGCAGUGUGGCUGUGGCUAGACUGCC [A16G G19A A25G A26U]	0.01
GGCAGAGCUCAACACGGCGUGGCAAAGUGGUUCUGGCUAUACCGCC [A16G C31U G33C G40U U43C]	0
GGCAGAGCUCAACACGGCGUCGCAAAGUGGCUUUGGCUAGACUGCC [A16G G21C G33U]	0.08
GGCAGAGCUCAACACGGCGUGGCAAAGUGGCUGUGGAUAGCCUGCA [A16G C37A A41C C46A]	0.03
GGCAGAGCUCAACACGGCAUGGCAAAGUGGCUGUGGCUAGUCUGCC [A16G G19A A41U]	0.13
GGCAGAGCUCAACACGGCGUGGCAAAGUGGCUGUGGAUAUACUGCC [A16G C37A G40U]	0.37
